The list shows a part of the results. At the low end of the ranking the order means little.
Molecular target: T1, GST-Rok-C97-191 (UniProt O34857)
T1 sequence: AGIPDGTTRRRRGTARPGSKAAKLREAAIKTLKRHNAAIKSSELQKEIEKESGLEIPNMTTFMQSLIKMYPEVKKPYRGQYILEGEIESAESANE
Experiment: protein binding microarray;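 note: rank score from −0.5 (least bound) to 0.5 (best bound)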
Details: Rok is a gene silencer of Bacillus subtilis; high values mean tight binding; most listed sequences are background and not binding sites; double strand, one strand shown

Sequence | binding signal [E-score]
AACTAAAG | -0.0536
ATAGCGCC | 0.0646
GAGACGAA | -0.0812
TGACAGCA | -0.0757
AACGTGGA | 0.103
CAATCTCG | 0.00272
GGATGAAA | 0.195
CAGAGGAA | -0.0243
GCGCGAAC | -0.0346
ATTGACAG | 0.0109
TAAAGTCA | -0.0164
CCCAGCGG | -0.261
GTCGAAGA | -0.229
GAATGGGA | -0.108
CCAGCACA | -0.23
ACAGATTA | 0.0434
AATACAAC | 0.278
CTATAACC | 0.00998
GATAACAA | 0.158
ATGTAACG | 0.168
ACAGATGC | -0.223
GAGTTATC | 0.206
ATTTAAAC | 0.0707
CAAAACCA | -0.0222
CCTGCGGC | -0.224

Sequence | binding signal [E-score]
CGGTGGTA | 0.198
CGCAAAGA | -0.193
AGAGGGCG | -0.291
GGGTTTAA | -0.164
CAATGGAC | 0.00709
AAGTTAAC | 0.178
AGACGTTA | 0.0889
CTCTTCGC | 0.115
ATAACCAA | 0.23
ACAGCTCT | -0.144
ATAAAAGA | 0.0514
CAACAGGG | -0.0974
GAGCCGGA | -0.257
GTGGCGTA | 0.0938
ACTATGGA | 0.0778
GGTTTTTA | 0.295
TATCTACA | 0.361
GGCGGCAC | -0.203
CATCACCG | -0.297
CCGGCGGC | -0.337
CGCTTAAG | -0.0513
CATGGGGA | -0.224
GACTAGCC | -0.0639
GCGCAGCA | -0.23
AGCCTATC | -0.00476

Sequence | binding signal [E-score]
ACAAGCGT | -0.0185
TCGCGCAA | 0.00428
GGCGAGCC | -0.342
ATAAACAT | 0.147
GTGCCCCA | -0.248
GGCTTGAA | -0.105
AGTCAATA | 0.254
ATGTGTTC | -0.0814
ATACATTG | 0.3
ACCTAATC | 0.204
ACCAAAAA | 0.167
ATAGAATG | 0.165
ACTTTAGA | -0.000697
CCGTGTCC | -0.357
AGAGCAGC | -0.187
ACTCGAGT | -0.131
CGTAACAG | 0.131
GGTAAGCA | 0.0231
AAACAGGA | -0.186
CCTCTGGC | -0.246
CAAGACAG | -0.2
GCCACGAA | -0.0882
AGAATCCT | -0.0221
CGGTTGAA | -0.0645
GGCCTGTA | -0.146

Sequence | binding signal [E-score]
CTTACCCA | 0.00339
AAAGAGAG | -0.0871
CTTCTATA | 0.211
TAACGAAA | 0.296
AAGCACGG | -0.0503
CAGACATA | 0.183
TCTTATCA | 0.163
TGCGCAAA | -0.0259
AGGTTACT | -0.00121
AGAGCGCC | -0.233
TGAGTCCA | -0.0978
GTTGAAAC | 0.109
GCGCTATA | 0.22
CGGCCCTC | -0.334
AGTTGACA | -0.0085
ATGGGGCC | -0.169
AGCTCTGG | -0.124
AAACGACG | -0.102
AAACCCGC | -0.173
ATACTTGA | 0.182
ACGTGAGA | 0.0082
ATGTTGGC | -0.0609
ATTGGCAC | 0.044
TATACTGA | 0.213
AATCAGGC | 0.233

Sequence | binding signal [E-score]
GTGACTTA | 0.0387
CAATGGTC | -0.0277
CAATAAAC | 0.0505
GCATGCCA | -0.34
CAGTATCA | 0.0403
CTCTACGA | 0.107
CGTGTCGC | -0.0215
ATGAAGAG | -0.149
ACCGTAAG | 0.0939
GGCGATAC | 0.0323
ACATCCCT | -0.0424
TGAATGAA | -0.0301
GGACTTCA | -0.105
CATAGTAG | 0.195
AAGGACTG | -0.0637
GTGTCCGA | -0.14
ATCCGGTG | 0.0546
AAGTAAGT | 0.263
GTGGACGA | -0.186
CGAAACCG | -0.0705
AGGAATAG | -0.141
AACCGGAT | -0.122
ATCCCGAC | -0.134
GCCCCTCA | -0.117
GATGGCTA | -0.111

Sequence | binding signal [E-score]
CTAGGGGA | -0.354
AAGGGGTC | -0.19
CGCATGCC | -0.295
AGAGAACA | 0.142
GTTCGTTA | 0.0459
CGTGAGCA | -0.11
CATTACGC | 0.0562
CGTAGGAA | 0.155
ACTGACGA | 0.1
ACGATCGT | -0.0944
ACCCTATC | 0.107
GACTCATC | -0.033
TAAAGCGA | -0.163
ACAACAAG | 0.0212
CTCTCAGA | -0.0688
AGATAATC | 0.157
CTAACAGC | -0.0319
GCTAAATA | 0.32
AACATCGT | 0.00842
ATGTGCTA | 0.107
CGGAACAG | -0.0903
CCAGCTAC | 0.00265
CATCTACA | 0.0976
GTTTCACA | -0.104
CGGCTACA | -0.00931

Sequence | binding signal [E-score]
CGGAGCAC | -0.152
AATTTATG | 0.209
ACCATCCA | -0.091
ATTGACAC | 0.0674
CGTTTAGC | 0.00399
AGTAGAGA | 0.206
TGGGCAAA | 0.0179
ACCGCATC | -0.105
CAGCTGAG | -0.23
AAGTCTTC | 0.048
TACCAAAA | 0.188
AGATGACG | -0.217
GATAACAC | 0.29
CCACCCAC | -0.151
CTTCGTGA | -0.0355
TCTGCACA | -0.141
GGCAATAC | -0.0605
CACAGTTA | 0.153
GGCTTCCC | -0.38
CACGGCCG | -0.211
CGTAGTCA | -0.102
ATATTGCG | 0.213
